Measured values from patent publication US11999759B2, “Boronic acid derivatives and therapeutic uses thereof” (Qpex Biopharma, Inc., priority 2016, dated 2024).
The name of at least one read-out is uncertain.

Experiments:
EC1010 (CMY-6) = experiment: Aztreonam potentiation (MPC@4), strain EC1010; details: minimum BLI concentration inhibiting growth with aztreonam at 4 μg/mL; BLI up to 40 μg/mL
KP1010 (SHV-12) [1] = experiment: Tigemonam potentiation (MPC@4), strain KP1010; details: minimum BLI concentration inhibiting growth with tigemonam at 4 ag/mL (so in the source); BLI up to 40
ec308 (SHV-5) [2] = experiment: Aztreonam potentiation (MPC@4), strain ec308; details: minimum BLI concentration inhibiting growth with aztreonam at 4 μg/mL; BLI up to 40 μg/mL
AB1054 (OXA-23) = experiment: Meropenem potentiation (MPC@8), strain AB1054; format: cell-based, Acinetobacter baumannii; details: minimum BLI concentration inhibiting growth with meropenem at 8 (MPC@8); BLI up to 20
ec308 (SHV-5) [3] = experiment: Tigemonam potentiation (MPC@4), strain ec308; format: cell-based; details: minimum BLI concentration inhibiting growth with tigemonam at 4 ag/mL (so in the source); BLI up to 40
ec302 (TEM-10) [4] = experiment: Tigemonam potentiation (MPC@4), strain ec302; format: cell-based; details: minimum BLI concentration inhibiting growth with tigemonam at 4 ag/mL (so in the source); BLI up to 40
KP1005 (CTX-M-14) [5] = experiment: Aztreonam potentiation (MPC@4), strain KP1005; details: minimum BLI concentration inhibiting growth with aztreonam at 4 μg/mL; BLI up to 40 μg/mL
KP1009 (CTX-M-15) [6] = experiment: Tigemonam potentiation (MPC@4), strain KP1009; details: minimum BLI concentration inhibiting growth with tigemonam at 4 ag/mL (so in the source); BLI up to 40
KP1009 (CTX-M-15) [7] = experiment: Aztreonam potentiation (MPC@4), strain KP1009; details: minimum BLI concentration inhibiting growth with aztreonam at 4 μg/mL; BLI up to 40 μg/mL
KP1005 (CTX-M-14) [8] = experiment: Tigemonam potentiation (MPC@4), strain KP1005; details: minimum BLI concentration inhibiting growth with tigemonam at 4 ag/mL (so in the source); BLI up to 40
ec302 (TEM-10) [9] = experiment: Aztreonam potentiation (MPC@4), strain ec302; details: minimum BLI concentration inhibiting growth with aztreonam at 4 μg/mL; BLI up to 40 μg/mL
KP1010 (SHV-12) [10] = experiment: Aztreonam potentiation (MPC@4), strain KP1010; details: minimum BLI concentration inhibiting growth with aztreonam at 4 μg/mL; BLI up to 40 μg/mL

Row | SMILES | AZT MPC4 CMY-6 EC1010 (EC1010 (CMY-6)) | TIG MPC4 SHV-12 KP1010 (KP1010 (SHV-12) [1]) | AZT MPC4 SHV-5 ec308 (ec308 (SHV-5) [2]) | MPM MPC8 AB1054 OXA-23 (AB1054 (OXA-23)) | TIG MPC4 SHV-5 ec308 (ec308 (SHV-5) [3]) | TIG MPC4 TEM-10 ec302 (ec302 (TEM-10) [4]) | AZT MPC4 CTX-M-14 KP1005 (KP1005 (CTX-M-14) [5]) | TIG MPC4 CTX-M-15 KP1009 (KP1009 (CTX-M-15) [6]) | AZT MPC4 CTX-M-15 KP1009 (KP1009 (CTX-M-15) [7]) | TIG MPC4 CTX-M-14 KP1005 (KP1005 (CTX-M-14) [8]) | AZT MPC4 TEM-10 ec302 (ec302 (TEM-10) [9]) | AZT MPC4 SHV-12 KP1010 (KP1010 (SHV-12) [10])
1 | COc1ccc2c(c1C(=O)O)OB(O)C1CC21 (stereo not drawn) [Compound 1, 2-Hydroxy-5-methoxy-1a,7b-dihydro-1H-cyclopropa[c][1,2]benzoxaborinine-4-carboxylic acid] | X (X = MPC@4 ≤ 5 μg/mL) | X (X = MPC@4 ≤ 5 μg/mL) | X (X = MPC@4 ≤ 5 μg/mL) | X (X = MPC@1 ≤ 5 μg/mL) | X (X = MPC@4 ≤ 5 μg/mL) | X (X = MPC@4 ≤ 5 μg/mL) | X (X = MPC@4 ≤ 5 μg/mL) | X (X = MPC@4 ≤ 5 μg/mL) | X (X = MPC@4 ≤ 5 μg/mL) | X (X = MPC@4 ≤ 5 μg/mL) | X (X = MPC@4 ≤ 5 μg/mL) | X (X = MPC@4 ≤ 5 μg/mL)
2 | COc1ccc2c(c1C(=O)O)OB(O)[C@H]1C[C@@H]21 [Compound 2, (1aS,7bR)-2-hydroxy-5-methoxy-1a,7b-dihydro-1H-cyclopropa[c][1,2]benzoxaborinine-4-carboxylic acid] | X (X = MPC@4 ≤ 5 μg/mL) | X (X = MPC@4 ≤ 5 μg/mL) | X (X = MPC@4 ≤ 5 μg/mL) | X (X = MPC@1 ≤ 5 μg/mL) | X (X = MPC@4 ≤ 5 μg/mL) | X (X = MPC@4 ≤ 5 μg/mL) | X (X = MPC@4 ≤ 5 μg/mL) | X (X = MPC@4 ≤ 5 μg/mL) | X (X = MPC@4 ≤ 5 μg/mL) | X (X = MPC@4 ≤ 5 μg/mL) | X (X = MPC@4 ≤ 5 μg/mL) | X (X = MPC@4 ≤ 5 μg/mL)
3 | COc1ccc2c(c1C(=O)O)OB(O)[C@@H]1C[C@H]21 [Compound 3, (1aR,7bS)-2-hydroxy-5-methoxy-1a,7b-dihydro-1H-cyclopropa[c][1,2]benzoxaborinine-4-carboxylic acid] | X (X = MPC@4 ≤ 5 μg/mL) | X (X = MPC@4 ≤ 5 μg/mL) | X (X = MPC@4 ≤ 5 μg/mL) | X (X = MPC@1 ≤ 5 μg/mL) | X (X = MPC@4 ≤ 5 μg/mL) | X (X = MPC@4 ≤ 5 μg/mL) | X (X = MPC@4 ≤ 5 μg/mL) | X (X = MPC@4 ≤ 5 μg/mL) | X (X = MPC@4 ≤ 5 μg/mL) | X (X = MPC@4 ≤ 5 μg/mL) | X (X = MPC@4 ≤ 5 μg/mL) | X (X = MPC@4 ≤ 5 μg/mL)
4 | O=C(O)c1c(F)ccc2c1OB(O)C1CC21 (stereo not drawn) [Compound 4, 5-Fluoro-2-hydroxy-1a,7b-dihydro-1H-cyclopropa[c][1,2]benzoxaborinine-4-carboxylic acid] | X (X = MPC@4 ≤ 5 μg/mL) | X (X = MPC@4 ≤ 5 μg/mL) | X (X = MPC@4 ≤ 5 μg/mL) | X (X = MPC@1 ≤ 5 μg/mL) | X (X = MPC@4 ≤ 5 μg/mL) | X (X = MPC@4 ≤ 5 μg/mL) | X (X = MPC@4 ≤ 5 μg/mL) | X (X = MPC@4 ≤ 5 μg/mL) | X (X = MPC@4 ≤ 5 μg/mL) | X (X = MPC@4 ≤ 5 μg/mL) | X (X = MPC@4 ≤ 5 μg/mL) | X (X = MPC@4 ≤ 5 μg/mL)
5 | COc1ccc2c(c1C(=O)O)OB(O)C1C2C1(F)F (stereo not drawn) [Compound 5, 1,1-Difluoro-2-hydroxy-5-methoxy-1a,7b-dihydrocyclopropa[c][1,2]benzoxaborinine-4-carboxylic acid] | X (X = MPC@4 ≤ 5 μg/mL) | X (X = MPC@4 ≤ 5 μg/mL) | X (X = MPC@4 ≤ 5 μg/mL) | Y (Y = 5 μg/mL < MPC@1 ≤ 20 μg/mL) | X (X = MPC@4 ≤ 5 μg/mL) | X (X = MPC@4 ≤ 5 μg/mL) | X (X = MPC@4 ≤ 5 μg/mL) | X (X = MPC@4 ≤ 5 μg/mL) | X (X = MPC@4 ≤ 5 μg/mL) | X (X = MPC@4 ≤ 5 μg/mL) | X (X = MPC@4 ≤ 5 μg/mL) | X (X = MPC@4 ≤ 5 μg/mL)
